Among all 230,000 compounds or so, about 1,500 (0.65%) were called active. The inconclusive results got no clear call from the source; some entries with a clear call stand among them for comparison. The call rests on the fitted dose curve; in most records, active means well fitted inhibition curve with a large enough effect; inconclusive means small, poorly fitted or top-dose-only effect; inactive means no such curve, though single readings can be large or run the other way. Potencies beside an inconclusive call are fits to weak or partial responses and may not hold up.
Target: Lethal(3)malignant brain tumor-like protein 1 (Homo sapiens) (UniProt Q9Y468)
UniProt Q9Y468, sequence (Q9Y468 whole entry, looked up): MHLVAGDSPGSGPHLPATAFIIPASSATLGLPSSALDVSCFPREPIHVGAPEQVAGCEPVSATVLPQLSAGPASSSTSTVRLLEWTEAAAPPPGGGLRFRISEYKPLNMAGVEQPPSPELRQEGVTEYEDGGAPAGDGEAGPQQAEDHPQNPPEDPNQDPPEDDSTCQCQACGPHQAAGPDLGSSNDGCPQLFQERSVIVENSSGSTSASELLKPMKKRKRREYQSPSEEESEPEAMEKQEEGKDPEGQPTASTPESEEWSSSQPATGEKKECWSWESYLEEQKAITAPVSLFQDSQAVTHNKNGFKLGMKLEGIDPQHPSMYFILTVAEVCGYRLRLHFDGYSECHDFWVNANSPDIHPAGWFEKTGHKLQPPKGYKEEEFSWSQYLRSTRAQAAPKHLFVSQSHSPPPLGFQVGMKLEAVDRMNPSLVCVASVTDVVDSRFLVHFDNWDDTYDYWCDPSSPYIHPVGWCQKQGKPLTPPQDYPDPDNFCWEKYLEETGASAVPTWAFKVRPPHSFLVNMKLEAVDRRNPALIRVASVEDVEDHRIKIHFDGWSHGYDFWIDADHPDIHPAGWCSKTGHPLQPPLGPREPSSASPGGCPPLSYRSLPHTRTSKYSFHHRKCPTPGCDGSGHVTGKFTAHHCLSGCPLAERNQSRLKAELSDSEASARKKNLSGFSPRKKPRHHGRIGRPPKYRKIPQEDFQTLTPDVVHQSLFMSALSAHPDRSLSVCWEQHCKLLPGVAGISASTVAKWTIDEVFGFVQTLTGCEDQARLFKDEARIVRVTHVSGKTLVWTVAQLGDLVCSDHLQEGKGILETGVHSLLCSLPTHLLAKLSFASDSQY
Experiment: qHTS Assay for the Inhibitors of L3MBTL1; further: nearly all actives have a fitted effect of over 60% in size
Conditions: AlphaScreen L3MBTL1–H3K9me1 peptide binding; activity, negative = inhibition: at 57.1 µM (top of the series)
Procedure, shortened: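 AlphaScreen assay: L3MBTL1 (50 nM final) was preincubated 30 min at room temperature with biotinylated H3(1-15)K9me1 peptide (75 nM final), then 30 min with library compounds; streptavidin donor and nickel chelate acceptor beads (10 ug/mL final) added, 30 min dark.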
On the % scale 0 is the no-effect control and ±100 the full control effect; potency means the concentration at half of the fitted maximal effect; tags describe the fitted curve by direction and shape.

Q: COc1cc(OC)c(C#N)c(S(=O)(=O)Cc2ccccc2)c1 was tested. Which “activity, negative = inhibition” value did it give?
A: inactive: 7.03%

Q: CC1=NN(C(N)=S)C(=O)C1N=Nc1ccc(Br)cc1 (stereo not drawn) was tested. Which “activity, negative = inhibition” value did it give?
A: inactive: 14.4%

Q: For COC(=O)c1cc(NC(=O)c2ccccc2F)cc(C(=O)OC)c1, which Potency is on record?
A: inconclusive: 0.316 µM [inhibitor, full curve]

Q: Which “activity, negative = inhibition” value does the source give for C/C(=N\Nc1ccccc1[N+](=O)[O-])c1ccc(N2CCOCC2)cc1 here?
A: inactive: -23.9%

Q: With CC(=O)/C(=N\Nc1ccccc1)Sc1cccc2cccnc12 as the compound, how does the “activity, negative = inhibition” value read?
A: inactive: -4.12%

Q: CCOc1cc2[nH]c(=S)n(CCCN(CC)CC)c(=O)c2cc1OCC was tested. Which Potency did it give?
A: inconclusive: 39.8 µM [inhibitor, single point]

Q: How did the Potency turn out when NC(=S)N/N=C/c1ncc(C(F)(F)F)cc1Cl was run?
A: inconclusive: 31.6 µM [inhibitor, single point]

Q: CC(C)c1nc(C(=O)N2CCc3c([nH]c4ccccc34)C2c2ccccn2)cs1 (stereo not drawn) was tested. Which Potency did it give?
A: inconclusive: 15.8 µM [inhibitor, partial curve]

Q: Cc1cccc(C(=O)OCC(=O)c2ccc3c(c2)NC(=O)CO3)c1 was tested. Which “activity, negative = inhibition” value did it give?
A: inactive: -1.94%

Q: Which Potency does the source give for O=C(NC(Cc1c[nH]c2ccccc12)C(=O)O)/C(=C/c1ccco1)NC(=O)c1ccccc1 (stereo not drawn) here?
A: inconclusive: 25.1 µM [inhibitor, single point]

Q: For CCC1=NN(C(=O)c2cccc([N+](=O)[O-])c2)C(O)(c2ccc(C)cc2)C1 (stereo not drawn), which Potency is on record?
A: inconclusive: 39.8 µM [inhibitor, single point]

Q: Which Potency does the source give for COc1cccc(C2CC(c3cccc(Br)c3)n3ncnc3N2)c1 (stereo not drawn) here?
A: inconclusive: 39.8 µM [inhibitor, single point]

Q: Which Potency does the source give for Cc1ccccc1C(=O)NNC(=O)c1ccncc1 here?
A: inconclusive: 6.31 µM [inhibitor, single point]

Q: With CCOC(=O)C1=C(C)NC(=O)NC1c1ccco1 (stereo not drawn) as the compound, how does the Potency read?
A: inconclusive: 22.4 µM [inhibitor, partial curve]

Q: CCC(=O)N1N=C(c2ccc(NS(=O)(=O)c3ccc(C)cc3)cc2)CC1c1ccco1 (stereo not drawn) was tested. Which Potency did it give?
A: inconclusive: 0.708 µM [inhibitor, single point]

Q: With CC(C)Nc1nnc(SCC(=O)NCc2ccc3c(c2)OCO3)s1 as the compound, how does the Potency read?
A: inconclusive: 0.708 µM [inhibitor, full curve, poor fit]

Q: CC1CCCC(C)N1C(=O)COC(=O)/C=C/c1ccc(Br)o1 (stereo not drawn) was tested. Which Potency did it give?
A: inconclusive: 39.8 µM [inhibitor, single point]

Q: With C=CCn1c(COc2ccc(Cl)cc2)nnc1SCC(=O)c1c(N)n(C)c(=O)n(C)c1=O as the compound, how does the “activity, negative = inhibition” value read?
A: inactive: -10.8%

Q: With CCOc1cc(N2CCOCC2)c(OCC)cc1NS(=O)(=O)c1ccc(Cl)s1 as the compound, how does the Potency read?
A: inconclusive: 31.6 µM [inhibitor, single point]

Q: Which “activity, negative = inhibition” value does the source give for O=C(Nc1ccccc1)c1cccc(S(=O)(=O)N2CCCCC2)c1 here?
A: inactive: 3.1%

Q: For O=[N+]([O-])c1ccccc1/C=C/C=N/n1c(-c2cc(-c3ccccc3)n[nH]2)n[nH]c1=S, which Potency is on record?
A: inconclusive: 28.2 µM [inhibitor, single point]

Q: CCC1CCCCN1Cc1cc(OC)c(O)c([N+](=O)[O-])c1 (stereo not drawn) was tested. Which “activity, negative = inhibition” value did it give?
A: inactive: -0.562%

Q: How did the Potency turn out when c1ccc(N/N=C2\CCCc3ccccc32)nc1 was run?
A: inconclusive: 28.2 µM [inhibitor, partial curve]

Q: CC[C@]12c3[nH]c4cc(-c5ccco5)ccc4c3CCN1C(=O)[C@@H](CC(=O)NC(C)(C)C)C[C@@H]2C(=O)N1CCN(C(=O)c2ccco2)CC1 was tested. Which Potency did it give?
A: inconclusive: 35.5 µM [inhibitor, single point]

Q: With CCn1c(COc2ccc(Cl)cc2)nnc1SCc1ccc(C#N)cc1 as the compound, how does the “activity, negative = inhibition” value read?
A: inactive: 5.71%

Q: CCOC(=O)NC(=O)COC(=O)CCCc1nc2ccccc2s1 was tested. Which Potency did it give?
A: inconclusive: 39.8 µM [inhibitor, single point]

Q: How did the Potency turn out when COc1cccc(/C=N/NC(=O)CSc2cccc3cccnc23)c1 was run?
A: inconclusive: 35.5 µM [inhibitor, partial curve]

Q: Which “activity, negative = inhibition” value does the source give for OCCCc1n[nH]c(=S)n1-c1ccccc1 here?
A: inactive: -8.14%

Q: Cc1ccc(C)c(NC(=O)CSc2nnc(-c3ccccc3)o2)c1 was tested. Which Potency did it give?
A: inconclusive: 31.6 µM [inhibitor, single point]

Q: With CCCCCC(=O)Nc1nc(C)c(-c2csc(Nc3cc(Cl)ccc3C)n2)s1 as the compound, how does the “activity, negative = inhibition” value read?
A: inactive: -0.0488%

Q: For CCc1ccc(S(=O)(=O)/N=C2/C=C(Sc3ncn[nH]3)C(=O)c3ccccc32)cc1, which Potency is on record?
A: inconclusive: 35.5 µM [inhibitor, partial curve, poor fit]

Q: For O=C(O)c1ccc(C=C(c2nc3ccccc3s2)c2nc3ccccc3s2)cc1, which “activity, negative = inhibition” value is on record?
A: inactive: -22.3%

Q: Which Potency does the source give for O=C(NCc1ccco1)c1nnc(Cc2ccc(F)cc2)o1 here?
A: inconclusive: 3.98 µM [inhibitor, single point]

Q: Cc1ccc(C)c(NC(=O)CN(C)C(=O)c2cccc(-n3cccc3)c2)c1 was tested. Which Potency did it give?
A: active: 8.91 µM

Q: With CN(C)S(=O)(=O)c1cccc(NC(=S)N/N=C/c2cc(Br)ccc2O)c1 as the compound, how does the Potency read?
A: active: 10 µM

Q: Which “activity, negative = inhibition” value does the source give for O=C1c2oc3ccccc3c(=O)c2C(c2cccc(O)c2)N1CCCN1CCOCC1 (stereo not drawn) here?
A: inactive: 3.16%

Q: Which “activity, negative = inhibition” value does the source give for O=C(NC1CCCCC1)C(c1cccnc1)N(C(=O)CCl)c1ccccc1Cl (stereo not drawn) here?
A: inactive: 5.14%

Q: CC(=O)NC(Cc1ccccc1)C(=O)OCC(=O)c1ccc(Br)cc1 (stereo not drawn) was tested. Which Potency did it give?
A: inconclusive: 6.31 µM [inhibitor, single point]

Q: Which Potency does the source give for O=C(NCc1ccco1)c1c2c(nc3ccccc13)CCC2 here?
A: inconclusive: 28.2 µM [inhibitor, single point]

Q: Which Potency does the source give for COc1ccc(N=C2S/C(=C\c3cc(C)n(C)c3C)C(=O)N2C)cc1 here?
A: inconclusive: 35.5 µM [inhibitor, single point]

Q: Which Potency does the source give for Cc1ccc(C2CC(c3cccc(Br)c3)Nc3nnnn32)cc1 (stereo not drawn) here?
A: inconclusive: 39.8 µM [inhibitor, single point]

Q: For O=C(O)c1cc(S(=O)(=O)Nc2ccc3oc(=O)sc3c2)ccc1O, which Potency is on record?
A: inconclusive: 35.5 µM [inhibitor, single point]

Q: O=C(CCn1c(=O)[nH]c2ccsc2c1=O)NCc1ccc(F)cc1 was tested. Which Potency did it give?
A: inconclusive: 6.31 µM [inhibitor, single point]

Q: For Clc1cccc(Cl)c1CNc1ccc(N2CCCC2)cc1, which Potency is on record?
A: inconclusive: 7.94 µM [inhibitor, partial curve]

Q: For Cc1ccc2[nH]c(=O)c3cc(C(=O)NCCN4CCN(C)CC4)sc3c2c1, which Potency is on record?
A: inconclusive: 39.8 µM [inhibitor, single point]

Q: Which Potency does the source give for Cc1cccc(NC(=S)N/N=C/c2ccc([N+](=O)[O-])s2)c1 here?
A: inconclusive: 35.5 µM [inhibitor, single point]

Q: Which Potency does the source give for Cc1ccc(OCc2nc(C#N)c(NCc3ccc4c(c3)OCO4)o2)cc1 here?
A: inconclusive: 17.8 µM [inhibitor, single point]

Q: How did the Potency turn out when Cc1c(Cl)cnc(NC(=O)COC(=O)/C=C/c2ccco2)c1Cl was run?
A: inconclusive: 31.6 µM [inhibitor, single point]

Q: How did the Potency turn out when O=C(c1ccc(O)cc1)c1ccc(C(=O)O)c(C(=O)O)c1 was run?
A: inconclusive: 39.8 µM [inhibitor, single point]

Q: How did the Potency turn out when C[C@]12c3[nH]c4cc(-c5ccco5)ccc4c3CCN1C(=O)[C@@H](CC(=O)NCCc1ccccn1)C[C@@H]2C(=O)N1CCCCC1 was run?
A: inconclusive: 35.5 µM [inhibitor, single point]

Q: For CCOC(=O)C1=C(N)Oc2c(oc(CO)cc2=O)C1c1ccc(F)cc1 (stereo not drawn), which Potency is on record?
A: inconclusive: 6.31 µM [inhibitor, single point]

Q: Which Potency does the source give for COc1ccccc1Nc1nc(N)nc(CN2CCN(c3ccccc3F)CC2)n1 here?
A: inconclusive: 35.5 µM [inhibitor, partial curve]

Q: Which Potency does the source give for COc1ccc2c(C(=O)CN(C)C3CCCCC3)c[nH]c2c1 here?
A: inconclusive: 3.98 µM [inhibitor, single point]

Q: For CCOc1cc(S(=O)(=O)NCC2CCCO2)ccc1F (stereo not drawn), which Potency is on record?
A: inconclusive: 31.6 µM [inhibitor, single point]

Q: How did the “activity, negative = inhibition” value turn out when CC1(c2ccc(Cl)cc2)NC(=O)N(CC(=O)NCCC2=CCCCC2)C1=O (stereo not drawn) was run?
A: inactive: -2.44%

Q: For Cc1ccc(C(=O)Nc2nc(-c3ccco3)c(-c3ccco3)s2)o1, which Potency is on record?
A: inconclusive: 39.8 µM [inhibitor, single point]

Q: CC1=CC(=O)N(c2ccc(C)cc2)C1c1ccc(Cl)cc1 (stereo not drawn) was tested. Which Potency did it give?
A: inconclusive: 4.47 µM [inhibitor, full curve, poor fit]

Q: For COC(=O)c1ccccc1NC(=O)N1CCN(C/C=C/c2ccccc2)CC1, which Potency is on record?
A: inconclusive: 6.31 µM [inhibitor, single point]

Q: How did the Potency turn out when CCCC(CCC(=O)Nc1cc([N+](=O)[O-])ccc1O)C(=O)O (stereo not drawn) was run?
A: inconclusive: 31.6 µM [inhibitor, single point]

Q: For Cc1ccc(S(=O)(=O)N2CCOCC2)cc1N/N=C(\C#N)c1nc2ccccc2[nH]1, which Potency is on record?
A: inconclusive: 0.708 µM [inhibitor, single point]

Q: Which Potency does the source give for CCCOc1cc(NCc2ccccc2)c2ncn(C(C)C)c2c1 here?
A: inconclusive: 25.1 µM [inhibitor, single point]

Q: Which Potency does the source give for O=C(c1ccco1)N(Cc1ccccc1)Cc1ccccn1 here?
A: inconclusive: 39.8 µM [inhibitor, partial curve]

Q: Which Potency does the source give for CCn1c(SCC(=O)Nc2ccc3c(c2)OCO3)nc2ccccc21 here?
A: inconclusive: 10 µM [inhibitor, partial curve]

Q: CO/N=C/c1ccc(Oc2ccc([N+](=O)[O-])cc2[N+](=O)[O-])c(OC)c1 was tested. Which “activity, negative = inhibition” value did it give?
A: inactive: -6.17%

Q: Which “activity, negative = inhibition” value does the source give for Cc1cc(C)n(-c2nnc(C)n2N)n1 here?
A: inactive: 3.77%

Q: With C=CCN(c1ccc(C(=O)Nc2cccc(C)c2)cc1)S(C)(=O)=O as the compound, how does the “activity, negative = inhibition” value read?
A: inactive: 10.8%

Q: How did the Potency turn out when O=C(N/N=C/c1ccc(-c2ccccc2[N+](=O)[O-])o1)[C@H]1C[C@@H]1c1ccccc1 was run?
A: inconclusive: 25.1 µM [inhibitor, partial curve]

Q: For CN(c1ccccc1)c1ccc(/C=C(\C#N)c2nnc3n2CCCCC3)cc1[N+](=O)[O-], which Potency is on record?
A: inconclusive: 0.708 µM [inhibitor, single point]

Source: PubChem BioAssay AID485360 (National Center for Advancing Translational Sciences (NCATS), 2010)
